Laboratory results taken from patent US4469706A, “Selective beta-2 adrenergic antagonists for the treatment of glaucoma” (priority 1982, dated 1984).

Test system: lung adenylate cyclase
Experiment: Lung adenylate cyclase activation and inhibition
Format: biochemical, mammalian
Conditions: for Ki: antagonists, Table I column F, ** data from the present inventor, method (a)

SMILES | β2/β1 potency ratio (Ki heart/Ki lung) (adenylate cyclase Ki values) | Ki [nM]
COc1ccc(OC)c(C(O)C(C)NC(C)(C)C)c1 (stereo not drawn) [Butoxamine] | 3.3 | 4500
CC(C)(C)NCC(O)CON=C1c2ccccc2-c2ccccc21 (stereo not drawn) [IPS 339, (t-butyl-amino 3-ol-2-propyl) oximino-9 fluorene, hydrochloride] |  | 90

Structures can show the parent of a compound that is named as a salt.
